Measurements as given in the supplement of paper PMC12217912.
Some of the results follow. Sequences were assembled here from the parent chain. Values near 0.05 are background.

B1: TEV protease; numbered along this chain (parent)
chain: MGESLFKGPRDYNPISSSICHLTNESDGHTTSLYGIGFGPFIITNKHLFRRNNGTLVVQSLHGVFKVKDTTTLQQHLVDGRDMIIIRMPKDFPPFPQKLKFREPQREERICLVTTNFQTKSMSSMVSDTSCTFPSGDGIFWKHWIQTKDGQCGSPLVSTRDGFIVGIHSASNFTNTNNYFTSVPKNFMELLTNQEAQQWVSGWRLNADSVLWGGHKVFMVKPEEPFQPVKEATQL

Variants of: B1
Assay: raw area under fraction-flipped curve 0-4 h after induction (AUC4h, not background-subtracted), DNA-recorder readout of cleavage of the substrate (dimensionless); higher = more cleavage of the substrate by the protease variant
Settings: temperature: 34 °C; time window: 0-4 h after rhamnose induction
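Note: Bxb1 expression induced with 0.2% (w/v) L-rhamnose at OD600 near 0.5, cultures sampled hourly, flipped fraction per protease–substrate barcode pair counted by paired-end Illumina sequencing.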

Variant | area with substrate ENLYHQS | area with substrate ENLYIQS | area with substrate ENLYKQS | area with substrate ENLYMQS | area with substrate ENLYPQS | area with substrate ENLYQQS | area with substrate ENLYWQS | area with substrate ENLYRQS | area with substrate ENLYLQS | area with substrate ENLYVQS
MGESLFKGPRDYNPISSSICHLTNESDGHTTSLYGIGFGPFIITNKHLFRRNNGTLVVQSLHGVFKVKDTTTLQQHLVQGRDMIIIRMPKDFPPFPQKLKFREPQREERICLVTTNFQTKSMSSMVSDTSCTFPSGDGIFWKHWIQTKDGQCGSPLVSTRDGFIVGIHSASNFTNTNNYFTSVPKNFMELLTNQEAQQWVSGWRLNADSVLWGGHKVFMVKPEEPFQPVKEATQL [D79Q] | 0.0661 | 0.114 | 0.0043 | 0.1 | 0.0678 | 0.0387 | 0.075 | – | – | –
MGESLFKGPRDYNPISSSICHLTNESDGHTTSLYGIGFGPFIITNKHLFRRNNGTLVVQSLHGVFKVKDTTTLQQHLVDGRDMIICRMPKDFPPFPQKLKFREPQREERICLVTTNFQTKSMSSMVSDTSCTFPSGDGIFWKHWIQTKDGQCGSPLVSTRDGFIVGIHSASNFTNTNNYFTSVPKNFMELLTNQEAQQWVSGWRLNADSVLWGGHKVFMVKPEEPFQPVKEATQL [I86C] | 0.07 | 0.101 | – | 0.0759 | 0.086 | – | – | 0.0578 | – | –
MGESLFKGPRDYNPISSSICHLTNESDGHTTSLYGIGFGPFIITNKHLFRRNNGTLVVQSLHGVFKVKDTTTLQQHLVDGRDMIIIRMPKDGPPFPQKLKFREPQREERICLVTTNFQTKSMSSMVSDTSCTFPSGDGIFWKHWIQTKDGQCGSPLVSTRDGFIVGIHSASNFTNTNNYFTSVPKNFMELLTNQEAQQWVSGWRLNADSVLWGGHKVFMVKPEEPFQPVKEATQL [F92G] | 0.0516 | – | – | – | – | – | – | – | 0.0463 | –
MGESLFKGPRDYNPISSSICHLTNESDGHTTSLYGIGFGPFIITNKHLFRRNNGTLVVQSLHGVFKVKDTTTLQQHLVDGRDMIIIRMPKDFPPFPQKLKFREPQREERICLVTTNFQTKSMSSMVSDTSCTFPSGDGIFWKHWIQTKDGQCGSPLVSTRDGFIVKIHSASNFTNTNNYFTSVPKNFMELLTNQEAQQWVSGWRLNADSVLWGGHKVFMVKPEEPFQPVKEATQL [G166K] | 0.0436 | – | – | – | – | – | – | 0.0548 | – | 0.0592
MGESLFKGPRDYNPISSSICHLTNESDGHTTSLYGIGFGPFIITNKHLFRRNNGTLVVQSLHGVFKVKDTTTLQQHLVDGRDMIIIRMPKDFPPFPQKLKFREPQREERICLVTTNFQTKSMSSMVSDTSCTFPSGDGIFWKHWIQTKDGQCGSPLVSTRDGFIVGIHSKSNFTNTNNYFTSVPKNFMELLTNQEAQQWVSGWRLNADSVLWGGHKVFMVKPEEPFQPVKEATQL [A170K] | 0.0631 | – | – | 0.0762 | – | – | 0.0447 | – | – | –
MGESLFKGPRDYNPISSSICHLTNESDGHTTSLYGIGFGPFIITNKHLFRRNNGTLVVQSLHGVFKVKDTTTLQQHLVDGRDMIIIRMPKDFPPFPQKLKFREPQREERICLVTTNFQTKSMSSMVSDTSCTFPSGDGIFWKHWIQTKDGQCGSPLVSTRDGFIVGIHSRSNFTNTNNYFTSVPKNFMELLTNQEAQQWVSGWRLNADSVLWGGHKVFMVKPEEPFQPVKEATQL [A170R] | 0.0183 | 0.038 | – | – | – | – | – | – | – | –
MGESLFKGPRDYNPISSSICHLTNESDGHTTSLYGIGFGPFIITNKHLFRRNNGTLVVQSLHGVFKVKDTTTLQQHLVDGRDMIIIRMPKDFPPFPQKLKFREPQREERICLVTTNFQTKSMSSMVSDTSCTFPSGDGIFWKHWIQTKDGQCGSPLVSTRDGFIVGIHSASNFTNTNNYFCSVPKNFMELLTNQEAQQWVSGWRLNADSVLWGGHKVFMVKPEEPFQPVKEATQL [T181C] | 0.0977 | – | – | – | – | – | – | – | – | 0.121
MGESLFKGPRDYNPISSSICHLTNESDGHTTSLYGIGFGPFIITNKHLFRRNNGTLVVQSLHGVFKVKDTTTLQQHLVDGRDMIIIRMPKDFPPFPQKLKFREPQREERICLVTTNFQTKSMSSMVSDTSCTFPSGDGIFWKHWIQTKDGQCGSPLVSTRDGFIVGIHSASNFTNTNNYFTVVPKNFMELLTNQEAQQWVSGWRLNADSVLWGGHKVFMVKPEEPFQPVKEATQL [S182V] | 0.0707 | – | 0.0416 | – | – | – | 0.0789 | – | – | –
MGESLFKGPRDYNPISSSICHLTNESDGHTTSLYGIGFGPFIITNKHLFRRNNGTLVVQSLHGVFKVKDTTTLQQHLVDGRDMIIIRMPKDFPPFPQKLKFREPQREERICLVTTNFQTKSMSSMVSDTSCTFPSGDGIFWKHWIQTKDGQCGSPLVSTRDGFIVGIHSASNFTNTNNYFTSVPKNFMELLTNIEAQQWVSGWRLNADSVLWGGHKVFMVKPEEPFQPVKEATQL [Q194I] | 0.0687 | 0.15 | – | 0.0709 | 0.0682 | – | – | 0.0515 | – | –
MGESLFKGPRDYNPISSSICHLTNESDGHTTSLYGIGFGPFIITNKHLFRRNNGTLVVQSLHGVFKVKDTTTLQQHLVDGRDMIIIRMPKDFPPFPQKLKFREPQREERICLVTTNFQTKSMSSMVSDTSCTFPSGDGIFWKHWIQTKDGQCGSPLVSTRDGFIVGIHSASNFTNTNNYFTSVPKNFMELLTNQEARQWVSGWRLNADSVLWGGHKVFMVKPEEPFQPVKEATQL [Q197R] | 0.067 | 0.114 | – | – | 0.0708 | – | 0.0525 | – | – | –
MGESLFKGPRDYNPISSSICHLTNESDGHTTSLYGIGFGPFIITNKHLFRRNNGTLVVQSLHGVFKVKDTTTLQQHLVDGRDMIIIRMPKDFPPFPQKLKFREPQREERICLVTTNFQTKSMSSMVSDTSCTFPSGDGIFWKHWIQTKDGQCGSPLVSTRDGFIVGIHSASNFTNTNNYFTSVPKNFMELLTNQEAQQWVSGWPLNADSVLWGGHKVFMVKPEEPFQPVKEATQL [R204P] | 0.0592 | – | 0.0334 | – | 0.0583 | – | 0.0607 | 0.0339 | 0.0623 | –

Same assay, conditions: temperature: 34 °C; time window: 0-4 h after rhamnose induction

Variant | area with substrate ENLYNQS | area with substrate ENLYSQS | area with substrate ENLYTQS
MGESLFKGPRDYNPISSSICHLTNESDGHTTSLYGIGFGPFIITNKHLFRRNNGTLVVQSLHGVFKVKDTTTLQQHLVDGRDMIIIRMPKDFPPFPQKLKFREPQREERICLVTTNFQTKSMSSMVSDTSCTFPSGDGIFWKHWIQTKDGQCGSPLVSTRDGFIVGIHSKSNFTNTNNYFTSVPKNFMELLTNQEAQQWVSGWRLNADSVLWGGHKVFMVKPEEPFQPVKEATQL [A170K] | 0.0645 | – | –
MGESLFKGPRDYNPISSSICHLTNESDGHTTSLYGIGFGPFIITNKHLFRRNNGTLVVQSLHGVFKVKDTTTLQQHLVDGRDMIIIRMPKDFPPFPQKLKFREPQREERICLVTTNFQTKSMSSMVSDTSCTFPSGDGIFWKHWIQTKDGQCGSPLVSTRDGFIVGIHSASNFTNTNNYFTSVPKNFMELLTNQEARQWVSGWRLNADSVLWGGHKVFMVKPEEPFQPVKEATQL [Q197R] | 0.0695 | 0.0566 | 0.0698
MGESLFKGPRDYNPISSSICHLTNESDGHTTSLYGIGFGPFIITNKHLFRRNNGTLVVQSLHGVFKVKDTTTLQQHLVDGRDMIIIRMPKDFPPFPQKLKFREPQREERICLVTTNFQTKSMSSMVSDTSCTFPSGDGIFWKHWIQTKDGQCGSPLVSTRDGFIVGIHSASNFTNTNNYFTSVPKNFMELLTNQEAQQWVSGWPLNADSVLWGGHKVFMVKPEEPFQPVKEATQL [R204P] | 0.0652 | – | –
